{
  "source": "PubChem BioAssay AID894",
  "about": "(National Center for Advancing Translational Sciences (NCATS), 2007)",
  "note": "Several values for one entry are separate records, joined by “and”; a condition that tells them apart may be missing. Equal values may be shown once. About 6,500 (4.3%) of roughly 150,000 compounds were called active. Inconclusive means that the source gave no clear call. Such entries were picked first, then a sample of the others. Calls follow the shape of the dose curve; as a rule, active = well fitted inhibition curve with a large enough effect (not every such curve was filed as active); inconclusive = small, poorly fitted or top-dose-only effect, or another doubt; inactive = no such curve, though single readings can be large or run the other way. Potencies of inconclusive entries are doubtful fits and often do not repeat. % is scaled to controls: 0 for no effect and ±100 for the full control effect; potency is read from the fitted curve at half-maximal effect; tags tell the direction and shape of the fitted curve.",
  "data": [
    {"biological_target": "15-hydroxyprostaglandin dehydrogenase [NAD(+)] (Homo sapiens) (UniProt P15428)", "sequence (P15428 whole entry, looked up)": "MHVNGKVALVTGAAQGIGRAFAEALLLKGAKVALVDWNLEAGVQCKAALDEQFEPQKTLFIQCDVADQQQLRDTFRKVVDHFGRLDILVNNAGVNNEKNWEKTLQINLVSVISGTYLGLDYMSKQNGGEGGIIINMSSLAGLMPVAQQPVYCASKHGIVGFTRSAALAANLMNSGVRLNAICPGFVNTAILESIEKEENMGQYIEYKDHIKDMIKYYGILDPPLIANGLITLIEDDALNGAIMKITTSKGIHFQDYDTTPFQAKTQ", "experiment": "qHTS Assay for Inhibitors of HPGD (15-Hydroxyprostaglandin Dehydrogenase)", "conditions": "purified HPGD, NADH fluorescence kinetic, PGE2 substrate; activity change, negative = inhibition: stronger effect = lower value", "method_in_brief": "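20 nM HPGD preincubated 15 min at room temperature with compound in 50 mM Tris-HCl pH 8, 0.01% Tween 20. Started with 1 mM NAD+ and 30 uM prostaglandin E2; NADH fluorescence (360/450 nm) read 5 times over 30-s intervals, last minus first.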", "values": [
      {"smiles": "O=C(NCCCN1CCOCC1)c1cc2ccccc2oc1=O", "Potency": "inconclusive: 28.2 µM [inhibitor, partial curve]"},
      {"smiles": "c1ccc2sc(Sc3ncnc4sccc34)nc2c1", "Potency": "inconclusive: 39.8 µM [inhibitor, single point]"},
      {"smiles": "COc1cc2nc(N3CCN(C(=O)c4ccco4)CC3)nc(N)c2cc1OC", "Potency": "inconclusive: 28.2 µM [inhibitor, partial curve] [middle of 6 runs]"},
      {"smiles": "CCCOC(=O)c1ccc(NC(=O)c2cc(Cl)ccc2OC)cc1", "Potency": "inconclusive: 28.2 µM [inhibitor, single point]"},
      {"smiles": "COc1ccc(OC)c(NC(=O)CSc2nc3ccccc3c3nc4ccccc4n23)c1", "Potency": "inconclusive: 31.6 µM [inhibitor, partial curve]"},
      {"smiles": "COc1cccc([C@@H]2Oc3ccc(OC)cc3C[C@H]2O)c1", "activity change, negative = inhibition": "inactive: -9.58%"},
      {"smiles": "Cc1cc(-c2n[nH]c(=S)n2/N=C/C=C/c2ccccc2)n[nH]1", "Potency": "active: 15.8 µM"},
      {"smiles": "CCOc1ccccc1/C=c1\\sc2nc(-c3ccco3)nn2c1=O", "Potency": "active: 17.8 µM"},
      {"smiles": "Cc1cccc(N2C(=O)CC(N(O)c3ccccc3)C2=O)c1", "note": "(stereo not given)", "activity change, negative = inhibition": "inactive: -8.95%"},
      {"smiles": "CCN(CC)S(=O)(=O)c1ccc(C)c(NC(=O)COC(=O)CNC(=O)c2ccc(C(C)(C)C)cc2)c1", "Potency": "inconclusive: 39.8 µM [inhibitor, single point]"},
      {"smiles": "CC(C)C1C(C#N)=C(N)SC(N)=C1C#N", "Potency": "inconclusive: 14.1 µM [inhibitor, partial curve]"},
      {"smiles": "Cc1ccc2nc(SCC(=O)NCC3CCCO3)c(C#N)cc2c1", "note": "(stereo not given)", "Potency": "active: 6.31 µM"},
      {"smiles": "COc1ccc(OCC(=O)c2c(O)c3ccccc3oc2=O)cc1", "Potency": "active: 22.4 µM"},
      {"smiles": "CCc1cc2cc3c(cc2nc1SCC(=O)Nc1nnc(C)s1)OCCO3", "activity change, negative = inhibition": "inactive: -17%"},
      {"smiles": "COc1ccccc1C1C=C(c2ccc(Cl)cc2)Nc2nc(NS(C)(=O)=O)nn21", "note": "(stereo not given)", "Potency": "inconclusive: 35.5 µM [inhibitor, single point]"},
      {"smiles": "Cc1cc(N2CCOCC2)c2c(N)c(C)cc(C)c2n1", "Potency": "inconclusive: 4.47 µM [inhibitor, single point]"},
      {"smiles": "O=C(NCC1COc2ccccc2O1)C1CCCN(S(=O)(=O)c2cccc3nsnc23)C1", "note": "(stereo not given)", "activity change, negative = inhibition": "inactive: -18.9%"},
      {"smiles": "COc1cc(Sc2ccc(C)cc2)c(OC)cc1N", "Potency": "active: 28.2 µM"},
      {"smiles": "Cn1c(=O)c2cc(NCc3ccccc3)nnc2n(C)c1=O", "Potency": "inconclusive: 28.2 µM [inhibitor, partial curve]"},
      {"smiles": "CCc1ccccc1NC(=O)CN(C)C(=O)Cn1ncc(Cl)c(Cl)c1=O", "activity change, negative = inhibition": "inactive: -3.94%"},
      {"smiles": "Cc1nc(Nc2c(Cl)cccc2Cl)sc1C(=O)Nc1ccccc1", "activity change, negative = inhibition": "inactive: -1.66%"},
      {"smiles": "CCCCC(=O)NC(c1cccc([N+](=O)[O-])c1)c1c(OC(C)=O)ccc2ccccc12", "note": "(stereo not given)", "Potency": "inconclusive: 31.6 µM [inhibitor, single point]"},
      {"smiles": "CCOC(=O)c1c(/N=C/N(C)C)sc(C(=O)OC)c1C", "activity change, negative = inhibition": "inactive: -29.6%"},
      {"smiles": "CC(C)(C)NC(=O)COC(=O)c1snc(C(=O)NC2CCCCC2)c1N", "Potency": "inconclusive: 28.2 µM [inhibitor, partial curve]"},
      {"smiles": "CN(Cc1cccc(Cl)c1Cl)C(=O)c1ccc(NC(=O)CC#N)cc1", "Potency": "active: 17.8 µM"},
      {"smiles": "COc1ccc2c3c(c(=O)oc2c1OCC(N)=O)CCCC3", "Potency": "inconclusive: 28.2 µM [inhibitor, partial curve]"},
      {"smiles": "C=CCNC(=S)N/N=C/c1ccc(-c2cc(Cl)ccc2Cl)o1", "Potency": "inconclusive: 15.8 µM [inhibitor, partial curve]"},
      {"smiles": "O=C(OCc1ccc(Br)cc1)c1cccc(-c2nnc(-c3ccccc3)o2)c1", "Potency": "inconclusive: 20 µM [inhibitor, partial curve, poor fit]"},
      {"smiles": "O=C(Nc1ccc(Nc2ccccc2)cc1)c1ccc(Br)o1", "Potency": "active: 28.2 µM"},
      {"smiles": "CC1(C)Cc2c(sc3c2c(=N)n(Cc2ccco2)c(=O)n3Cc2ccccc2)CO1", "activity change, negative = inhibition": "inactive: -8.11%"},
      {"smiles": "CCc1cc2c(=O)c(-c3nc4ccccc4n3C)coc2c(CN2CCN(C)CC2)c1O", "Potency": "inconclusive: 14.1 µM [inhibitor, partial curve]"},
      {"smiles": "CCn1c(SCC(=O)Nc2cc(C)on2)nnc1-c1ccncc1", "activity change, negative = inhibition": "inactive: -5.74%"},
      {"smiles": "O=c1[nH]c2ccc(S(=O)(=O)N3CCCCC3)cc2o1", "activity change, negative = inhibition": "inactive: -0.112%"},
      {"smiles": "Cn1cccc1C(=O)C(=O)Nc1cc(Cl)cc(Cl)c1", "Potency": "inconclusive: 35.5 µM [inhibitor, partial curve]"},
      {"smiles": "CCCCNC(=O)c1ccc2c(SCC(=O)O)c3c(nc2c1)CCCC3", "Potency": "active: 12.6 µM"},
      {"smiles": "c1ccc(Nc2nc(-c3ccncc3)nc3ccccc23)cc1", "Potency": "inconclusive: 31.6 µM [inhibitor, partial curve]"},
      {"smiles": "Cc1ccc(Cn2nnc3c(=O)n(Cc4cc(C)ccc4C)cnc32)cc1", "Potency": "active: 3.98 µM"},
      {"smiles": "O=C(c1cc2nc(C3CC3)cc(C(F)(F)F)n2n1)N1CCCC1", "Potency": "inconclusive: 15.8 µM [inhibitor, partial curve, poor fit]"},
      {"smiles": "CC(C)(C)OC(=O)NCCC(=O)Oc1ccc2ccc(=O)oc2c1", "Potency": "inconclusive: 12.6 µM [inhibitor, partial curve]"},
      {"smiles": "NC(=O)c1ccc(-c2ncc(-c3ccccc3)o2)cc1", "Potency": "inconclusive: 12.6 µM [inhibitor, partial curve]"},
      {"smiles": "CC(C)OC(=O)CC(=O)CSc1nc2c(c(-c3cccs3)c1C#N)CCC2", "activity change, negative = inhibition": "inactive: -5%"},
      {"smiles": "O=C1Nc2ccccc2C(=O)N2CCC[C@@H]12", "activity change, negative = inhibition": "inactive: -2.68%"},
      {"smiles": "O=C(CSc1n[nH]c(-c2ccccc2)n1)Nc1ccc(Br)cn1", "Potency": "active: 12.6 µM"},
      {"smiles": "OCC1OC(n2cnc3c(Cl)ncnc32)C(O)C1O", "note": "(stereo not given)", "activity change, negative = inhibition": "inactive: -2.89%"},
      {"smiles": "O=C(/C=C/c1cccc(Cl)c1)NCCc1ccccc1", "Potency": "active: 8.91 µM"},
      {"smiles": "CCN(CC)S(=O)(=O)c1ccc(Cl)c(C(=O)NC)c1", "activity change, negative = inhibition": "inactive: -6.2%"},
      {"smiles": "O=C(O)CCNc1ccccc1C(=O)O", "Potency": "inconclusive: 3.55 µM [inhibitor, partial curve]"},
      {"smiles": "CCOc1ccc(-c2n[nH]c(=S)n2/N=C/c2cc3c(cc2[N+](=O)[O-])OCO3)cc1", "Potency": "active: 3.55 µM"},
      {"smiles": "Cc1ccc(S(=O)(=O)NC(=O)NN2CC3CCCC3C2)cc1", "note": "(stereo not given)", "activity change, negative = inhibition": "inactive: -2.84% and inactive: -6.95%"},
      {"smiles": "Cc1sc(NC(=O)c2cc(-c3ccc(Cl)cc3)nc3ccccc23)c(C(N)=O)c1C", "Potency": "active: 12.6 µM"},
      {"smiles": "C=CCn1c2ccccc2c2nnc(SCC(=O)OCN3C(=O)c4ccccc4C3=O)nc21", "Potency": "inconclusive: 25.1 µM [inhibitor, single point]"},
      {"smiles": "CCCCNC(=O)c1cc2c(-c3ccc(Cl)cc3)nn(C)c2s1", "Potency": "inconclusive: 14.1 µM [inhibitor, partial curve]"},
      {"smiles": "Cc1cnc(NC(=O)CSc2nnc(-c3ccc(Cl)cc3Cl)n2N)s1", "Potency": "active: 25.1 µM"},
      {"smiles": "CCCOc1ccc(-c2c(C(=O)N/N=C/c3ccc(OC)cc3)nnn2-c2nonc2N)cc1", "Potency": "inconclusive: 35.5 µM [inhibitor, partial curve]"},
      {"smiles": "O=c1[nH]c2ccccc2n1CCC1CCCCC1", "Potency": "inconclusive: 28.2 µM [inhibitor, partial curve]"},
      {"smiles": "N#CCCn1c(=O)c(-c2ccccc2)nc2cnc(N3CCNCC3)nc21", "Potency": "inconclusive: 28.2 µM [inhibitor, partial curve]"},
      {"smiles": "CCOC(=O)c1c(NC(=O)CN(C)C)sc(C(=O)N(CC)CC)c1C", "activity change, negative = inhibition": "inactive: 0.706%"},
      {"smiles": "Clc1ccccc1Cn1c(/C=C/c2ccco2)nc2ccccc21", "Potency": "inconclusive: 25.1 µM [inhibitor, partial curve]"},
      {"smiles": "Cc1nn2c(N)c(C#N)cnc2c1-c1ccccc1", "activity change, negative = inhibition": "inactive: -4.25%"},
      {"smiles": "Cc1ccc(C(=O)Nc2cc(Cl)ccc2N2CCCCC2)s1", "Potency": "inconclusive: 31.6 µM [inhibitor, partial curve]"},
      {"smiles": "O=c1c(O)cccc2cc(O)c(O)c(O)c12", "Potency": "active: 5.01 µM"},
      {"smiles": "CCOC(=O)c1sc(NC(=O)c2cc(-c3ccccc3C)nc3ccccc23)c(C#N)c1C", "Potency": "active: 15.8 µM"},
      {"smiles": "OC[C@H]1O[C@@H](n2cnc3c(Nc4ccccc4)ncnc32)[C@H](O)[C@H]1O", "activity change, negative = inhibition": "inactive: -6.75%"},
      {"smiles": "COc1cc(/C=C/C(=O)OCC(=O)NC(=O)NC(C)C)ccc1OCC#N", "Potency": "inconclusive: 22.4 µM [inhibitor, single point]"},
      {"smiles": "O=c1cc(-c2ccccc2)oc2cc(O)c(O)cc12", "Potency": "active: 17.8 µM"},
      {"smiles": "Cn1c(-c2cccc3ccccc23)n[nH]c1=S", "activity change, negative = inhibition": "inactive: -23.5%"},
      {"smiles": "CCOc1ccc2nc(N3CCOCC3)nc(C)c2c1", "Potency": "inconclusive: 35.5 µM [inhibitor, partial curve]"},
      {"smiles": "COc1ccc(NCC(=O)Nc2ccc(Cl)cc2C)c(OC)c1", "Potency": "active: 7.94 µM"},
      {"smiles": "CCOC(=O)N1CCN(c2nc(SC)nc3sc4c(c23)CC(C)(C)OC4)CC1", "Potency": "inconclusive: 28.2 µM [inhibitor, partial curve]"},
      {"smiles": "O=C(OCC#CCSc1nnc(-c2cccc3ccccc23)o1)c1ccco1", "Potency": "inconclusive: 35.5 µM [inhibitor, partial curve]"},
      {"smiles": "CC(NC(=O)OC(C)(C)C)C(=O)Oc1cc2oc(=O)cc(-c3ccccc3)c2cc1Cl", "note": "(stereo not given)", "Potency": "inconclusive: 22.4 µM [inhibitor, partial curve]"},
      {"smiles": "CCCN(Cc1cc2cc(C)ccc2[nH]c1=O)C(=O)c1cccc(OC)c1", "Potency": "inconclusive: 28.2 µM [inhibitor, partial curve]"},
      {"smiles": "O=C(O)c1cc2ccccc2[nH]1", "Potency": "inconclusive: 28.2 µM [inhibitor, partial curve]"},
      {"smiles": "Nc1nc2ccc(S(=O)(=O)N3CCCCC3)cc2s1", "Potency": "active: 14.1 µM"},
      {"smiles": "O=C(/C(=C/c1ccc(Cl)cc1)c1nc2ccccc2[nH]1)c1cccs1", "Potency": "inconclusive: 17.8 µM [inhibitor, partial curve]"}
    ]}
  ]
}
